# Source: paper PMC6919601, “Identification of Plasmodium dipeptidyl aminopeptidase allosteric inhibitors by high throughput screening” (PLoS ONE, 2019)
# About 230 (0.21%) of roughly 110,000 compounds showed an effect of 50% or more. This is one part of the list.
# Molecular target: DPAP1 (Plasmodium falciparum, UniProt Q8IIJ9)
# Test: primary screen, percent inhibition; read by cleavage of a fluorogenic dipeptide substrate; higher = more effect of the substance
# Design: species or system P. falciparum D10 trophozoite lysates; single well
# 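Further: 30 min substrate incubation versus DMSO and 10 µM JCP410 controls.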
# DPAP1, sequence (Q8IIJ9 whole entry, looked up): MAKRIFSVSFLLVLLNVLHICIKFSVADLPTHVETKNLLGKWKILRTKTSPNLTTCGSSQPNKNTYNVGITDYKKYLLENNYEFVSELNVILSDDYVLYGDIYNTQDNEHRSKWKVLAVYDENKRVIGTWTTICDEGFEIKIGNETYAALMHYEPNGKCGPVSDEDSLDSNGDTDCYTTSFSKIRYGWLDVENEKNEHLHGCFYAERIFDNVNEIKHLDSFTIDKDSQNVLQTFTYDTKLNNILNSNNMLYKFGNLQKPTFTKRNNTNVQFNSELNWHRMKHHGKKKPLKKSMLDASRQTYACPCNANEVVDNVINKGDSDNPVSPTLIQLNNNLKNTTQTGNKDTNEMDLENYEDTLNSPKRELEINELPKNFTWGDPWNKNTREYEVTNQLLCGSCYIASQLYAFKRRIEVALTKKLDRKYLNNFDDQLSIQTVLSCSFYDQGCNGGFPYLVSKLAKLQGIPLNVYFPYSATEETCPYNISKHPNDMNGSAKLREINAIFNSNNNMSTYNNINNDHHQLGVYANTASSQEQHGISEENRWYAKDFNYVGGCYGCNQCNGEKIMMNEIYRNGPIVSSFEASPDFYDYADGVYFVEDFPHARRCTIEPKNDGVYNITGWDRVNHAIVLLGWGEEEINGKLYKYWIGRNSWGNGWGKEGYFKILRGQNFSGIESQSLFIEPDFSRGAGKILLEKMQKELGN
row,SMILES,% Inhibition @ 10 uM [%]
1,Cc1cccc(CCNC(=O)c2cccc3c2SCCC3=O)c1,-2.58
2,CCN1C(=O)S/C(=C/c2ccc(OCC(N)=O)c(OC)c2)C1=O,2.87
3,CCN1C(=O)C(=CNc2ccccc2OC)C(=O)N(CC)C1=O,0.687
4,CC1(C)CC(=O)c2sc(NC(=O)Cc3cccs3)nc2C1,-5.19
5,COc1ccc(C2C(C#N)=C(N)OC3=C2C(=O)CCC3)cc1COc1ccccc1 (centres unmarked),1.02
6,CCN(CC)c1ccc(NC(=O)c2cc(Cl)ccc2OC)cc1,-4.72
7,CN1CCCN(Cc2ccc([N+](=O)[O-])o2)CC1,1.48
8,CCc1ccccc1N(CC(=O)Nc1ccc2ccccc2c1)S(C)(=O)=O,-3.46
9,COCc1cc(C2SCC(=O)Nc3c2c(-c2ccccc2)nn3-c2ccccc2)ccc1OC (centres unmarked),2.09
10,O=c1[nH]c2ccccc2c(=O)n1Cc1ccccc1,-6.33
11,O=C(Nc1ccc(-c2nc3cc(NC(=O)C(F)(F)F)ccc3s2)cc1)C(F)(F)F,1.71
12,Cn1c(=O)n(Cc2cccc(Br)c2)c(=O)c2c1ncn2Cc1ccccc1,3.53
13,COc1ccccc1Nc1nc(-c2ccc(S(=O)(=O)N3CCCCC3)cc2)cs1,0.708
14,N/C(=N\c1ccccc1)Nc1nc(O)c2c(n1)CCCC2,-1.17
15,CCCCCCCCNC(=O)Cc1ccc(OC)cc1,-3.49
16,CCOc1ccc(NC(=O)c2c(NC(=O)CCC(=O)O)sc3c2CCC(C)C3)cc1 (centres unmarked),12.5
17,O=C(/C=C/c1ccc2c(c1)OCO2)N1CCCC1,2.16
18,CCCN1Cc2cccc(C(=O)NC(C)c3cccs3)c2C1=O (centres unmarked),-0.499
19,C=COCCOCCn1c2ccccc2c2ccccc21,1.04
20,O=C(CNS(=O)(=O)c1ccc(Cl)cc1)N1CCN(c2ccccc2F)CC1,0.59
21,COc1ccc(C2C(C(=O)NC3CCCCC3)c3cc(OC)c(OC)cc3C(=O)N2C)cc1 (centres unmarked),-0.363
22,CCc1nc2c(cnn2-c2ccc(C)cc2)c(=O)n1Cc1ccc(C)cc1,0.208
23,N#CCNC(=O)C1(NC(=O)N2CCN(c3ccc(-c4cccnc4)cc3)CC2)CCCCC1,0.173
24,COc1ccc(OC)c(NC2=C(Cl)C(=O)N(Cc3ccccc3)C2=O)c1,3.05
25,CN1CCC(Oc2ccccc2Sc2ccccc2)CC1,-2.18

row,SMILES,% Inhibition @ 10 uM [%]
1,Cc1nc(NCc2ccc(F)cc2)nc2c1C(=O)c1ccccc1-2,-2.91
2,COc1cc2c(cc1/C=C1/NC(=O)N(Cc3ccc(Cl)c(Cl)c3)C1=O)OCO2,-5.7
3,O=C(CN1CCOCC1)NCC12CC3CC(CC(C3)C1)C2,-4.98
4,O=C(Nc1ccc(-c2cn3ccccc3n2)cc1)C1CC1c1ccccc1 (centres unmarked),-2.63
5,COc1ccc(CSC(=S)NC2CCS(=O)(=O)C2)cc1 (centres unmarked),6.08
6,CC1(C)Cc2ccccc2CN1C(=O)c1ccccc1,5.37
7,CCOC(=O)c1cc2c(=O)n3ccccc3nc2n(C)/c1=N/C(=O)c1cc2ccccc2o1,-2.04
8,COc1ccc(Br)cc1CNC(=O)c1cc2c(O)nc3ccccc3c2s1,-0.499
9,CN(CCNC(=O)c1cc2ccc3cccnc3c2[nH]1)Cc1ccccc1,3.28
10,CC(=O)N(CN1C(=O)C2CCCCC2C1=O)c1ccccc1C (centres unmarked),-1.17
11,N#Cc1c(C(F)(F)F)cc(-c2cccs2)nc1SCC(=O)N1CCCCC1,87
12,CC(C)C[C@H](NC(=O)C1CCC1)C(=O)NCC#N,-3.04
13,O=C(O)c1cc2cc(OCc3ccccc3)ccc2[nH]1,-4.52
14,Oc1ccc(CNCC2NCCc3ccccc32)cc1Cl (centres unmarked),1.03
15,CCOC(=O)c1c(NC(=O)CN2C(=O)c3ccccc3S2(=O)=O)sc2c1CCCC2,5.44
16,CC(=O)N(C1=C(N2CCOCC2)C(=O)c2ccccc2C1=O)C1CCCCC1,-5.14
17,CC(=O)N1CCc2c([nH]c3ccccc23)C1c1cccc(C)c1 (centres unmarked),-1.62
18,COC(=O)C1=C(O)/C(=C\c2ccccc2C(F)(F)F)N=C1C,-11.3
19,CNC(=O)c1ccc(Cn2c(SCc3ccc(F)cc3)nc3ccncc32)cc1,-1.92
20,O=[N+]([O-])c1ccc(S(=O)(=O)N2CCCCCC2)cc1,16.8
21,COc1ccc(/C=C2/SC(=O)N(CC(=O)Nc3nccs3)C2=O)cc1OC,-8.06
22,CC(C)C[C@H](NS(=O)(=O)c1ccc2ccccc2c1)C(=O)NCC#N,-3.04
23,CC(=O)C(C)n1c(CN2CCCCC2)nc2c1c(=O)n(C)c(=O)n2C (centres unmarked),8.49
24,CCN(CC)CC1CCc2c(c3ccccc3n2C)C1=O (centres unmarked),-8.01
25,Cc1cccc(N(C)S(=O)(=O)c2ccc(C(=O)Nc3cccc(C(=O)O)c3)cc2)c1,-2.97
